We go through 195 variants from a collection of fitness landscapes (doi:10.1126/science.1257360).

The other results are listed elsewhere or left out.

First the molecules themselves.
B1: PhoQ; a variant is named by its letters at X, in order, P23837 (parent)
chain: MKKLLRLFFPLSLRVRFLLATAAVVLVLSLAYGMVALIGYSVSFDKTTFRLLRGESNLFYTLAKWENNKLHVELPENIDKQSPTMTLIYDENGQLLWAQRDVPWLMKMIQPDWLKSNGFHEIEADVNDTSLLLSGDHSIQQQLQEVREDDDDAEMTHSVAVNVYPATSRMPKLTIVVVDTIPVELKSSYMVWSWFIYVLSANLLLVIPLLWVAAWWSLRPIEALAKEVRELEEHNRELLNPATTRELTSLVRNLNRLLKSERERYDKYRTTLTDLTHSLKTPLXXLQXXLRSLRSEKMSVSDAEPVMLEQISRISQQIGYYLHRASMRGGTLLSRELHPVAPLLDNLTSALNKVYQRKGVNISLDISPEISFVGEQNDFVEVMGNVLDNACKYCLEFVEISARQTDEHLYIVVEDDGPGIPLSKREVIFDRGQRVDTLRPGQGVGLAVAREITEQYEGKIVAGESMLGGARMEVIFGRQHSAPKDE

The variants in the assay derive from B1. In words: enrichment ratio after two sorts for PhoP signalling (ratio (wild type AVST 3.29)); higher = more functional. Particulars: with PhoP (E. coli).
Regarding RDCW, the enrichment ratio is not above 0.25.
As for NTPH, the enrichment ratio is not above 0.25.
TSHL: the enrichment ratio was found to be 8.01.
As for PGAD, the figure is not above 0.25; as for RRPE, not above 0.25; as for NLTE, not above 0.25.
With KFML, the enrichment ratio is not above 0.25.
The same measure for DPWE: not above 0.25; for GMNP: not above 0.25.
For the variant YDTE, the enrichment ratio was not above 0.25.
The same measure for PTKG: not above 0.25.
With CPPS, the enrichment ratio was not above 0.25.
For FQHN, the enrichment ratio is not above 0.25.
SAEL: the enrichment ratio was not above 0.25.
As to FWWE, the enrichment ratio was not above 0.25.
As to DRNI, the enrichment ratio is not above 0.25.
SYFW: the enrichment ratio is not above 0.25.
Take MSCI: the enrichment ratio is 16.7.
As for QMAL, the enrichment ratio came out at 0.702.
As for KCWF, the figure is not above 0.25.
The same measure for TQSL: 8.69.
The same measure for WYCW: not above 0.25; for NKPV: not above 0.25.
Consider WEKP, for which the enrichment ratio is not above 0.25.
Regarding QRQG, the enrichment ratio was not above 0.25.
In the case of FVST, the enrichment ratio was not above 0.25.
With WCFF, the enrichment ratio is not above 0.25.
The same measure for FIGY: not above 0.25.
Turning to HTHV, the enrichment ratio was not above 0.25.
On to NHNH, for which the enrichment ratio is not above 0.25.
As to HHFD, the enrichment ratio is not above 0.25.
The same measure for QALA: 1.57.
Take PEIR: the enrichment ratio was not above 0.25.
In the case of GYFT, the enrichment ratio is not above 0.25.
Take VDHN: the enrichment ratio was not above 0.25.
Consider EWCL, for which the enrichment ratio was not above 0.25.
As for SCCW, the enrichment ratio is 5.25.
In the case of SHRD, the enrichment ratio is not above 0.25.
As for KIPK, the figure is not above 0.25; as for GRFN, not above 0.25.
The same measure for EEYQ: not above 0.25.
For the variant FTSS, the enrichment ratio was not above 0.25.
Take QMFN: the enrichment ratio was not above 0.25.
With DTEK, the enrichment ratio is not above 0.25.
Turning to FEHF, the enrichment ratio is not above 0.25.
For VGMT, the enrichment ratio was not above 0.25.
As for RAYC, the figure is not above 0.25; as for FDTQ, not above 0.25.
For the variant LEDQ, the enrichment ratio was not above 0.25.
Consider TMYE, for which the enrichment ratio was not above 0.25.
VRRE: the enrichment ratio is not above 0.25.
Take CSLT: the enrichment ratio turned out to be 11.7.
For the variant VPCC, the enrichment ratio is not above 0.25.
With KPVI, the enrichment ratio is not above 0.25.
As to WDHL, the enrichment ratio is not above 0.25.
In the case of EIGL, the enrichment ratio was not above 0.25.
On to PDFK, for which the enrichment ratio was not above 0.25.
Turning to PPSH, the enrichment ratio is not above 0.25.
Regarding ETCK, the enrichment ratio is not above 0.25.
Turning to KMYE, the enrichment ratio is not above 0.25.
The same measure for TRGD: not above 0.25; for HCCQ: not above 0.25; for IKDI: not above 0.25.
Regarding SVNL, the enrichment ratio was not above 0.25.
On to NLCD, for which the enrichment ratio is not above 0.25.
Take PVLD: the enrichment ratio is not above 0.25.
With PLKQ, the enrichment ratio was not above 0.25.
Take SVTT: the enrichment ratio was 1.43.
In the case of SCGP, the enrichment ratio is not above 0.25.
For TVPN, the enrichment ratio was not above 0.25.
With QLYV, the enrichment ratio was not above 0.25.
Consider WVPE, for which the enrichment ratio is not above 0.25.
Turning to YGHD, the enrichment ratio is not above 0.25.
In the case of HYAM, the enrichment ratio was not above 0.25.
Consider SNRF, for which the enrichment ratio was not above 0.25.
The same measure for DTIW: not above 0.25; for CFNF: not above 0.25.
For the variant NCVN, the enrichment ratio is not above 0.25.
Regarding ADHQ, the enrichment ratio was not above 0.25.
Consider WWFS, for which the enrichment ratio is not above 0.25.
For PFAS, the enrichment ratio is not above 0.25.
For RQTK, the enrichment ratio is not above 0.25.
Take IYFI: the enrichment ratio was not above 0.25.
As for KFAE, the enrichment ratio is not above 0.25.
On to ISPM, for which the enrichment ratio was not above 0.25.
On to YSMR, for which the enrichment ratio is not above 0.25.
With PGYG, the enrichment ratio is not above 0.25.
For the variant HMFQ, the enrichment ratio was not above 0.25.
Consider SASK, for which the enrichment ratio is not above 0.25.
Regarding NVCN, the enrichment ratio was not above 0.25.
Turning to AHSD, the enrichment ratio is not above 0.25.
As for NFWH, the figure is not above 0.25; as for AQDN, not above 0.25; as for MNHA, not above 0.25.
As for WKEV, the figure is not above 0.25; as for SYFE, not above 0.25; as for DINL, not above 0.25.
For the variant AKKN, the enrichment ratio was not above 0.25.
The same measure for TFQS: not above 0.25.
YTHE: the enrichment ratio was not above 0.25.
As for HRGV, the figure is not above 0.25; as for SWPN, not above 0.25; as for IEGV, not above 0.25.
Regarding FRII, the enrichment ratio is not above 0.25.
As for PRQP, the figure is not above 0.25; as for HEIP, not above 0.25.
The same measure for LYNQ: not above 0.25.
As to DRTN, the enrichment ratio was not above 0.25.
Turning to HNEY, the enrichment ratio is not above 0.25.
For the variant APLK, the enrichment ratio was not above 0.25.
The same measure for WFLT: not above 0.25.
Consider AVAY, for which the enrichment ratio is 10.3.
Turning to SWDC, the enrichment ratio was not above 0.25.
As for VHSA, the figure is not above 0.25; as for KARQ, not above 0.25.
For NGLG, the enrichment ratio is not above 0.25.
For the variant PYCN, the enrichment ratio is not above 0.25.
As to HGRP, the enrichment ratio is not above 0.25.
YCAI: the enrichment ratio is 0.312.
As for PPVP, the enrichment ratio was not above 0.25.
SRSE: the enrichment ratio is not above 0.25.
Turning to MQNG, the enrichment ratio is not above 0.25.
As for EEHR, the enrichment ratio was not above 0.25.
For the variant CSTC, the enrichment ratio was not above 0.25.
The same measure for LSPN: not above 0.25; for DWHS: not above 0.25.
Consider FYAP, for which the enrichment ratio is not above 0.25.
For the variant GWQS, the enrichment ratio is not above 0.25.
In the case of QPTK, the enrichment ratio was not above 0.25.
As for DRMT, the figure is not above 0.25; as for FLLF, not above 0.25; as for VCRL, not above 0.25.
The same measure for EKPA: not above 0.25.
Take SVHN: the enrichment ratio is not above 0.25.
With AKHF, the enrichment ratio is not above 0.25.
In the case of ERDG, the enrichment ratio was not above 0.25.
In the case of HPHL, the enrichment ratio was not above 0.25.
As for EADF, the enrichment ratio was not above 0.25.
As to LICF, the enrichment ratio is not above 0.25.
For the variant MNQY, the enrichment ratio was not above 0.25.
As for APYL, the figure is not above 0.25; as for FKMN, not above 0.25.
As for QYRQ, the enrichment ratio was not above 0.25.
Consider SKET, for which the enrichment ratio was not above 0.25.
In the case of WGFN, the enrichment ratio is not above 0.25.
With QTCS, the enrichment ratio is not above 0.25.
Turning to GYYH, the enrichment ratio was not above 0.25.
Regarding EHLE, the enrichment ratio is not above 0.25.
For FFHE, the enrichment ratio was not above 0.25.
In the case of TWCR, the enrichment ratio is not above 0.25.
As for NHMY, the enrichment ratio was not above 0.25.
Take AAWP: the enrichment ratio is not above 0.25.
Consider EEIY, for which the enrichment ratio is not above 0.25.
As to WYVW, the enrichment ratio was not above 0.25.
Turning to LSFV, the enrichment ratio was found to be 5.15.
Turning to HMYP, the enrichment ratio was not above 0.25.
Consider WLRD, for which the enrichment ratio was not above 0.25.
On to IWMW, for which the enrichment ratio is not above 0.25.
Consider KLHK, for which the enrichment ratio was not above 0.25.
The same measure for PQFQ: not above 0.25; for LLMV: not above 0.25; for GMYL: not above 0.25.
As for EWPS, the enrichment ratio is not above 0.25.
Take FPTR: the enrichment ratio is not above 0.25.
On to DYTK, for which the enrichment ratio was not above 0.25.
For the variant ITDD, the enrichment ratio is not above 0.25.
Take NAYD: the enrichment ratio is not above 0.25.
Take VDES: the enrichment ratio was not above 0.25.
Turning to IATK, the enrichment ratio was not above 0.25.
As for FRNR, the figure is not above 0.25.
In the case of GFKC, the enrichment ratio was not above 0.25.
For AAVQ, the enrichment ratio was not above 0.25.
For the variant LCIF, the enrichment ratio is not above 0.25.
Turning to RHVT, the enrichment ratio was not above 0.25.
Take MTHN: the enrichment ratio is not above 0.25.
For DKSD, the enrichment ratio is not above 0.25.
As for EQFR, the figure is not above 0.25; as for NEHM, not above 0.25; as for WSRY, not above 0.25.
TKNA: the enrichment ratio stood at 5.51.
Take IFII: the enrichment ratio is not above 0.25.
As for NLAN, the figure is not above 0.25.
On to HIAI, for which the enrichment ratio was not above 0.25.
As for QQYM, the enrichment ratio came out at 47.2.
QDNK: the enrichment ratio is not above 0.25.
As for KEMD, the figure is not above 0.25; as for KTYR, not above 0.25.
With NCPT, the enrichment ratio is not above 0.25.
On to AMWE, for which the enrichment ratio was not above 0.25.
As for EQTP, the figure is not above 0.25; as for QNIV, not above 0.25; as for QFGM, not above 0.25.
The same measure for GKIW: not above 0.25.
As for MILL, the figure is 7.68; as for KKHP, not above 0.25.
